# “And” between values parts separate entries of the source, which are not always exact repeats. Equal values may be shown once. The list shows a part of the results. Shown are side measurements of this screen, not its main read-out; they come without a call. Compounds called inactive in the main read-out are mostly missing here.
# Experiment: insulin promoter activators in MIN6 cells, imaging, high-content screening, mouse beta cells (AID 1625);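 also: total cells summed across four imaged fields per well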
# Conditions: MIN6 insulin promoter-GFP reporter, measured here: cytotoxicity, nuclei count, at 5 µM
row,SMILES,cell count
1,Cc1noc(C)c1S(=O)(=O)N1CCN(c2ccccc2)CC1,453 cells
2,COc1ccc(C(=O)c2c(C(F)(F)F)oc3c2C(=O)c2ccccc2C3=O)cc1OC,352 cells
3,CC(=O)c1cc(C#N)c(SCC(=O)C(C)(C)C)nc1C,191 cells
4,COc1cccc(/C=N/Nc2ncnc(Cl)c2N)c1O,457 cells
5,CCCCCCc1nc2ccccc2c(=O)n1NC(=O)c1c(O)c2c(n(CC(C)C)c1=O)CCCC2,469 cells
6,CNC(=O)c1ccc(-c2sc3nc(N4CCOCC4)c4c(c3c2N)CC(C)(C)OC4)o1,1240 cells
7,CCc1cccc2cc3c(N)c(C(=O)Nc4ccc(S(=O)(=O)N5CCCC5)cc4)sc3nc12,1030 cells
8,Cc1cccc(NC(=O)Nc2ccc(C#N)cc2)n1,1710 cells
9,N/C(COc1ccc(Cl)cc1)=N\NS(=O)(=O)c1ccccc1,441 cells
10,O=C(NCC(=O)N(CC1CCCO1)C1(C(=O)NC2CCCC2)CCCCC1)c1ccccc1 (stereo unspecified),412 cells
11,O=C(CN1CCN(c2ncccn2)CC1)Nc1ccccc1-n1cccc1,454 cells
12,O=C1c2cccc3c(N4CCCCC4)ccc(c23)C(=O)N1c1ccccc1O,1400 cells
13,Cc1ccc(CNc2ccc3c(c2)OCO3)c(C)c1,1200 cells
14,Cc1ccnc(N/C=C(\C#N)c2nc(-c3cccc(Br)c3)cs2)c1,1480 cells
15,CC(C)c1ccccc1-n1c(SCC(=O)N2CCc3ccccc3C2)nc2ccccc2c1=O,386 cells
16,COc1cccc(Nc2nc(NCC3CCCO3)c3ccccc3n2)c1 (stereo unspecified),269 cells
17,Cc1c(N=C2N=C(NC(=O)c3cccs3)c3ccccc32)c(=O)n(-c2ccccc2)n1C,1390 cells
18,Cc1cc(C)n(-c2nc(NCCN(C)C)c3c4c(sc3n2)CCCC4)n1,376 cells
19,COC(=O)c1cc2c(-c3ccccc3)cc3ccccn3c-2c1C(=O)OC,981 cells
20,O=C(c1cc(-c2cccs2)on1)N1CCN(C(c2ccccc2)c2ccccc2)CC1,466 cells
21,Cc1ccc2c(c1)nnn2C1CCN(S(=O)(=O)c2ccc(C(=O)N3C(C)CCCC3C)cc2)CC1 (stereo unspecified),431 cells
22,CCCCNc1cc(C)nc(NCc2ccccc2)n1,301 cells

row,SMILES,cell count
1,N#C/C(=C\c1ccc([N+](=O)[O-])o1)c1nc2ccccc2[nH]1,440 cells
2,COc1ccc(C2=Nn3c([n+](C)c4ccccc43)SC2)cc1,394 cells
3,O=C(/C=C/c1cc(Br)ccc1O)c1ccco1,351 cells
4,CCCc1[nH]nc2c1C(c1ccc(Br)s1)C(C#N)=C(N)O2 (stereo unspecified),496 cells
5,COc1ccc(C(=O)C[n+]2cc(-c3ccc(OC)cc3)n3c2CCCC3)cc1,430 cells and 489 cells
6,CC1CCCN(c2ncnc3c2cnn3-c2ccc(Cl)cc2)C1 (stereo unspecified),442 cells
7,Cc1nonc1NC(=O)CSc1nc2c(C)cccc2cc1C#N,1430 cells
8,CC(C)c1ccc(-n2c(-c3ccccc3)c[n+]3c2CCc2ccccc2-3)cc1,323 cells
9,Cc1nc(N2CCN(C(=O)c3ccco3)CC2)c2c3c(sc2n1)CCCC3,415 cells
10,CCOC(=O)c1[nH]c2ccccc2c1NC(=S)Nc1cccc(C)c1,414 cells
11,CN(C)/C=N/c1ncc(C(=O)c2ccc(Cl)cc2)s1,465 cells
12,CN(C)CCCN(C(=O)/C=C/c1cccs1)c1nc2ccc(F)cc2s1,286 cells
13,CCn1ncc(Br)c1C(=O)Nc1sc2c(c1C(N)=O)CCC2,1070 cells
14,CCCCc1c(CCC)c(=N)c2ccccc2n1C,126 cells
15,CCN1/C(=C\c2ccc3ccccc3[n+]2CC)Sc2cc(C)ccc21,196 cells
16,CCN(CC)S(=O)(=O)c1ccc(C(=O)OCn2c(SC)nnc(C)c2=O)cc1,427 cells
17,Cc1noc(C)c1S(=O)(=O)N1CCC(C(=O)N2CCN(C3CCCC3)CC2)CC1,1440 cells
18,Cn1c(=O)n(C)c2cc([N+](=O)[O-])c(N3CCN(C(=O)c4ccccc4)CC3)cc21,496 cells
19,CN(C)c1ccc(/C=C2\SC(=O)N(CC(O)Cn3c4ccccc4c4ccccc43)C2=O)cc1 (stereo unspecified),1310 cells
20,CCOC(=O)CNC(=O)c1cn(C)c(=O)c2cc(OC)c(OC)cc12,1070 cells
21,CC(C)NCC(O)Cn1c2c(c3ccccc31)CCc1c-2cnn1-c1ccccc1 (stereo unspecified),481 cells
22,CCN=c1scc(-c2ccc3c(c2)NC(=O)CO3)n1N=C1CCCC1,426 cells

row,SMILES,cell count
1,Cc1cccc(N2CCN(S(=O)(=O)c3ccc4c(c3)CCN4C(=O)CCC(=O)O)CC2C)c1 (stereo unspecified),397 cells
2,COc1ccc(NS(=O)(=O)c2ccc(OC)c(N(C)S(=O)(=O)c3ccc(Cl)cc3)c2)cc1,328 cells
3,O=C(c1ccco1)N1CCN(c2nc(C(F)(F)F)nc3c2nnn3Cc2ccccc2)CC1,401 cells
4,CCOC(=O)CN1CC23C=CC(O2)C(C(=O)Nc2cc(OC)ccc2OC)C3C1=O (stereo unspecified),2010 cells
5,Clc1nc2c(-c3ccccc3)nnn2c2ccccc12,302 cells
6,O=C(N/N=C/c1cc(Br)ccc1O)c1cccc(N2CCCC2=O)c1,426 cells
7,COc1cccc(-c2nc(CS(=O)(=O)CC(=O)N3CCc4ccccc43)c(C)o2)c1,450 cells
8,CC1=C/C(=N\OS(=O)(=O)c2ccccc2)C=CC1=O,473 cells
9,O=C(CCCO)N/N=C/c1cc(Br)ccc1O,392 cells
10,CCOc1ccccc1NC(=O)CN(c1ccc(C)cc1)S(=O)(=O)c1c(C)n[nH]c1C,449 cells
11,Cc1[nH]c2ccccc2c1/C=N/Nc1ccc([N+](=O)[O-])cc1,1100 cells
12,Cc1cc2[nH]c3c(c[n+](C)c4ccccc34)c2cc1C,381 cells
13,C/C(CCc1ccc2c(c1)OCO2)=N\NC(=O)c1ccccc1,476 cells
14,CN(C)C=Nc1ccc2nn(-c3ccccc3)nc2c1,1390 cells
15,CC(C)(C)c1ccc(-c2cn(-c3ccc(Br)cc3)c3[n+]2CCCS3)cc1,418 cells
16,N#C/C(=C/c1ccc(-c2ccccc2)o1)c1nc(-c2cccs2)cs1,1070 cells
17,N#C/C(=C/c1ccc(-c2ccc(S(N)(=O)=O)cc2)o1)c1nc2ccccc2s1,1100 cells
18,CN(C)c1ccc(-c2n(C)c3ccccc3[n+]2C)cc1,444 cells
19,COc1ccc(-n2cc(-c3ccccc3)[n+]3c2CCCCC3)cc1,448 cells
20,O=C(OCC(=O)N1CCN(C(=O)c2ccco2)CC1)c1ccccc1OCc1ccccc1,1320 cells
21,CCn1c(/C=C/c2ccc([N+](=O)[O-])o2)nc2ccccc2c1=O,254 cells
22,CCCCN(CC)S(=O)(=O)c1ccc(C(=O)N=c2sc3cc(NC(C)=O)ccc3n2C)cc1,490 cells

row,SMILES,cell count
1,CCOc1ccc(OCCCCn2ccnc2)cc1,1110 cells
2,COc1ccc(CNC(=S)N/N=C/c2ccc(O)c(OC)c2)cc1,492 cells
3,O=C(COc1ccccc1)N1CCN=C1c1ccccc1,1350 cells
4,Cc1cc(/C=C2\SC(=S)NC2=O)c(C)n1C1CC1,1500 cells
5,CCOC(=O)Cn1c2ccc(F)cc2c2nc(C)sc21,1360 cells
6,O=C(NCC1CCCO1)c1ccc(CS(=O)(=O)c2c(Cl)cccc2Cl)o1 (stereo unspecified),260 cells
7,Cn1c(=O)c(Nc2ccc(Cl)cc2)c2c3c(cccc31)C(=O)c1ccccc1-2,1180 cells
8,CCNC(=O)CC1C(=O)N(c2cccc(OC)c2)C(=O)N1CCOC (stereo unspecified),467 cells
9,O=C(O)/C=C/c1coc2ccc(F)cc2c1=O,432 cells
10,Cn1c(=O)n(C)c2cc(NC(=O)COc3ccc(Cl)cc3)ccc21,1200 cells
11,Brc1ccc(Oc2nsnc2N2CCOCC2)cc1,1300 cells
12,CC(=O)n1cc(N(C(=O)CCl)c2ccc(Cl)cc2)c2ccccc21,280 cells
13,Cc1cc(N=NC(=O)c2ccccc2)ccc1O,328 cells
14,CCOC(=O)c1ccc(NC(=O)Cn2ncc(Cl)c(Cl)c2=O)cc1,213 cells
15,O=c1oc2c3c4c(cc2c(C(F)(F)F)c1CCN1CCOCC1)CCCN4CCC3,1310 cells
16,CCOc1ccc(Oc2cc(NC(=O)c3ccco3)cc([N+](=O)[O-])c2)cc1,490 cells
17,Cc1ccc(NC(=O)CN(C)C(=O)Cn2ncc(Cl)c(Cl)c2=O)cc1,385 cells
18,CCN1/C(=C/C=C/c2oc3ccc4ccccc4c3[n+]2CC)Oc2ccc3ccccc3c21,550 cells
19,CCn1c(SCC(=O)c2c[nH]c3ccccc23)nc2cc(S(=O)(=O)N3CCOCC3)ccc21,1500 cells
20,COc1ccccc1NC(=O)/C=C1\SCC(=O)N1C,1170 cells
21,CCC(NC(=O)Nc1ccc(O)cc1)(C(F)(F)F)C(F)(F)F,473 cells
22,Cc1ccc(-c2cc[n+](Cc3ccccc3)cc2)cc1,401 cells

row,SMILES,cell count
1,CC1CN(C(=O)CCn2c(=O)oc3ccccc32)CC(C)O1 (stereo unspecified),1170 cells
2,c1ccc(-n2ncc3c(N4CCN(c5ccccn5)CC4)nc(N4CCCCCC4)nc32)cc1,861 cells
3,Cn1c(C(=O)N2CCC(C(=O)N3CCN(Cc4ccc5c(c4)OCO5)CC3)CC2)cc2sccc21,1940 cells
4,CCCCN1C(=O)/C(=C/C=C2\Oc3ccccc3N2CC)SC1=S,1560 cells
5,CN(c1cccc(Cl)c1)S(=O)(=O)c1cccc(C(=O)NC2=NCCS2)c1,1550 cells
6,Cc1ccc(-n2c(O)c(/C=N/NC(=O)C3COc4ccccc4O3)c3ccccc3c2=O)cc1 (stereo unspecified),1260 cells
7,COc1c(CC=C(C)C)cc(C2CC(=O)c3c(O)cc(O)cc3O2)cc1CC=C(C)C (stereo unspecified),200 cells
8,CC(C)(C)NC(=S)N/N=C\c1ccc(-c2ccc([N+](=O)[O-])cc2)o1,1020 cells
9,CCCNC(=O)c1ccc2c(=O)c(O)c(-c3cccc(Br)c3)[nH]c2c1,181 cells
10,O=C(NCc1cccs1)c1ccc(N2CCCCC2)nc1,1120 cells
11,CCN(CC)C(=O)c1sc2nc(-c3cccs3)cc(-c3cccs3)c2c1N,1360 cells
12,CN1/C(=C\C=C2/SC(=S)NC2=O)C(C)(C)c2ccccc21,704 cells
13,CCOC(=O)C1CCCN(c2nc(C)nc3c2oc2ccccc23)C1 (stereo unspecified),435 cells
14,CCCn1c(SCC(=O)NC2CCCCC2)nnc1-c1ccncc1,1170 cells
15,Cc1cccc[n+]1CC(=O)/C=C1\N(C)c2ccccc2C1(C)C,486 cells
16,CC1CCCC(NC(=O)C2CCCN2S(=O)(=O)c2cccc3nsnc23)C1C (stereo unspecified),332 cells
17,CN(C)c1ccc(/C=C/c2ccc3ccccc3[n+]2C)cc1,363 cells
18,O=C1c2cccc3c(N4CCCCC4)ccc(c23)C(=O)N1c1ccc(O)cc1,1140 cells
